The campaign covered roughly 220,000 compounds. About 5,700 (2.6%) were called active. The shares of active, inactive and inconclusive entries below differ from those in the screen. Calls follow the shape of the dose curve; as a rule, active = well fitted inhibition curve with a large enough effect; inconclusive = small, poorly fitted or top-dose-only effect; inactive = no such curve, though single readings can be large or run the other way. A potency beside an inconclusive call is a rough fit, not a confirmed value.
Biological target: Lysine-specific demethylase 5B (Homo sapiens) (UniProt Q9UGL1)
Assay: Primary screen for KDM5B Histone Demethylases FDH-coupled qHTS; also: nearly all actives have a fitted effect of over 70% in size; as to activity change, negative = inhibition: 0% is about no effect
Conditions: FDH-coupled NADH fluorescence (FDH is formaldehyde dehydrogenase); activity change, negative = inhibition: at 57.7 µM (top of the series)
Outline: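 Compound dilutions met 200 nM (final) KDM5BΔAP for 10 min at room temperature before substrate addition. The substrate mix held 12.5 µM H3K4me3 with cofactors 25 µM α-ketoglutarate and 50 µM Fe²⁺. NADH signal gain over 30 min defined activity.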
Potency is read from the fitted curve at half-maximal effect; tags tell the direction and shape of the fitted curve.

UniProt Q9UGL1, sequence (Q9UGL1 whole entry, looked up): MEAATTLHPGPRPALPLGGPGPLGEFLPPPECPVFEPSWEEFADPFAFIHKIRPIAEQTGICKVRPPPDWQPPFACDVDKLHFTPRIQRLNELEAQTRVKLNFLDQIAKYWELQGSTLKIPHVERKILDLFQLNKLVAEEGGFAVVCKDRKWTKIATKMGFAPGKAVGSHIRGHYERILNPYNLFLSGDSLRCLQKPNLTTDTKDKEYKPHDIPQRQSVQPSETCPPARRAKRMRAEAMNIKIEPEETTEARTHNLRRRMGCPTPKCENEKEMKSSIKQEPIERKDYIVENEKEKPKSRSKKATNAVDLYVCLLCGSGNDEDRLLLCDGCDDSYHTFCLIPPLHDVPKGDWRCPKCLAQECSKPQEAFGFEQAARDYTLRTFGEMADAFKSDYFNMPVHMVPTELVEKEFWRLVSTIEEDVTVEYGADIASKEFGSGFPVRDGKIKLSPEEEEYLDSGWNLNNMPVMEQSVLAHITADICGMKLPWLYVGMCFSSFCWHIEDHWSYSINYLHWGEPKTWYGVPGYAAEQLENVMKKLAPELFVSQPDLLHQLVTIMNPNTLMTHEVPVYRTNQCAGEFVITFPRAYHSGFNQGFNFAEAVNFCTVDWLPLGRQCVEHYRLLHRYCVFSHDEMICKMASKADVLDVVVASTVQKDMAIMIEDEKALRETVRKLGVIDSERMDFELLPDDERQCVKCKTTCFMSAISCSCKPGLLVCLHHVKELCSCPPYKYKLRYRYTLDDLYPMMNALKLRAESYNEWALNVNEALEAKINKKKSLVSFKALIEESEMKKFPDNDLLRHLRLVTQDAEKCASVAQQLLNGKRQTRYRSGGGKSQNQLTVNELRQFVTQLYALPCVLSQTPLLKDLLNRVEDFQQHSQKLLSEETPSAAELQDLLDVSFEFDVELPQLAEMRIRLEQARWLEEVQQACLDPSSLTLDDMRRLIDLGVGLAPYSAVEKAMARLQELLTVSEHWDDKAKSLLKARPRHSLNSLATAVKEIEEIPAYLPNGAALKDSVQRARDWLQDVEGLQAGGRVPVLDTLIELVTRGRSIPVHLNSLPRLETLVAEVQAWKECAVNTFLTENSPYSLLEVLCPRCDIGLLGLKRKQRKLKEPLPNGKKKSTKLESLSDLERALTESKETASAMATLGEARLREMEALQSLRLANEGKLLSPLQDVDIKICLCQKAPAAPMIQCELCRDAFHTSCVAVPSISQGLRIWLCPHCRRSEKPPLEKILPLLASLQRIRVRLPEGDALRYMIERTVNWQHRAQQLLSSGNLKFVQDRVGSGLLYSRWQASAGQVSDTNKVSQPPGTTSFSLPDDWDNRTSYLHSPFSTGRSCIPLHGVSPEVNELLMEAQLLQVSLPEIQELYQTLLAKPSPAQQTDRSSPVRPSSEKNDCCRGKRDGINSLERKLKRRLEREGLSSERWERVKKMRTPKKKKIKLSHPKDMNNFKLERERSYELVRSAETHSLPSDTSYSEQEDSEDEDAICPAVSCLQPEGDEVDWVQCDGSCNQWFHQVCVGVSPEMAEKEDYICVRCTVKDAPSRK

SMILES	Potency	activity change, negative = inhibition
CCC1CCCCN1C(=O)c1cn(C)c2ccccc12 (centres undefined)	inactive	
COC[C@H]1C[C@@H](NCc2cn(C)c3ccccc23)[C@H](O)[C@@H]1O	inconclusive: 12.6 µM [inhibitor, partial curve]	
COC(=O)c1ccccc1N=Cc1c(O)[nH]c(=O)[nH]c1=O	inconclusive: 39.8 µM [inhibitor, single point]	
O=C1NC(=O)N(Cc2ccco2)C(=O)/C1=C\c1cccn1CCOc1ccccc1		inconclusive: -31.1% [inhibitor]
C#CCCN1CCN(C(=O)Cc2nn(C)c(=O)c3ccccc23)CC1	inactive	
COc1cc2c(cc1OCc1ccccc1)N(C(=O)c1cc3ccccc3[nH]1)CC21CCN(C)CC1	inconclusive: 15.8 µM [inhibitor, single point]	
COC(=O)C1=Nc2ccccc2/C1=C\c1c(O)n(C)c(=O)n(C)c1=O	inconclusive: 39.8 µM [inhibitor, partial curve, poor fit]	
COc1ccc(CN(C)CC2[C@H]3CNC[C@@H]23)c2cccnc12 (some centres undefined)	inconclusive: 15.8 µM [inhibitor, partial curve, poor fit]	
Cc1nc(-c2ccco2)cc([C@H]2CN3CC[C@H]2C[C@@H]3CNC2CCOCC2)n1	active: 22.4 µM	
O=C1NC(=O)N(CCC2=CCCCC2)C(=O)/C1=C/c1cccs1	inconclusive: 14.1 µM [inhibitor, partial curve, poor fit]	
Cc1ccccc1OCC(=O)N1CCN(Cc2ccc(=O)n(C)c2)CC1	inconclusive: 4.47 µM [inhibitor, partial curve]	
CSCC(=O)N1C[C@@H]2C[C@H](C1)c1ccc(-c3cccc(C(F)(F)F)c3)c(=O)n1C2	active: 35.5 µM	
COc1ccccc1-c1cc([C@H]2CN3CC[C@H]2C[C@@H]3COC(=O)Nc2ccc(C(C)C)cc2)nc(C)n1	inactive	
CCn1cc(CN2CCN(C(=O)Cc3cccs3)CC2)ccc1=O	active: 12.6 µM	
O=S(=O)(c1ccc(F)cc1)N1[C@H]2CC[C@@H]1c1cncnc1C2	inactive	
COc1ccc(Br)cc1CNCCc1ccc2c(c1)OCO2	inconclusive: 20 µM [inhibitor, partial curve, poor fit]	
Nc1cccc(-c2cn(C[C@H]3CC4CCN3C[C@@H]4C(=O)NCc3ccccc3)nn2)c1 (some centres undefined)	inconclusive: 28.2 µM [inhibitor, partial curve, poor fit]	
COc1ccc(-c2cc([C@H]3CN4CC[C@H]3C[C@@H]4CNC(=O)NC(C)C)nc(C)n2)cc1OC	active: 31.6 µM	
CN(C(=O)CCl)C1CCCCC1	inactive	
CNC(C)c1cccnc1 (centres undefined)	inconclusive: 12.6 µM [inhibitor, partial curve, poor fit]	
O=C(c1ccccc1)N1C[C@@H]2C[C@H](C1)c1c(-c3cncnc3)ccc(=O)n1C2	inconclusive: 50.1 µM [inhibitor, single point]	
Cc1nccc(N2CCN(C)C3(CCC(=O)N(C)CC3)C2)n1 (centres undefined)	inactive	
CC(=O)c1cccc(NC(=O)c2cccn(Cc3cccc(C)c3)c2=O)c1	inconclusive: 39.8 µM [inhibitor, single point]	

SMILES	Potency	activity change, negative = inhibition
CN(C)Cc1ccccc1-c1ccc2n(c1=O)C[C@H]1C[C@@H]2CN(C(=O)c2cnccn2)C1	inconclusive: 31.6 µM [inhibitor, partial curve]	
COC(=O)c1ccccc1NC(=O)c1cccn(Cc2cccc(Cl)c2)c1=O	inconclusive: 14.1 µM [inhibitor, partial curve, poor fit]	
Cc1cc(CN2CC3ON=C(C(=O)O)C3C2)cc(C)n1 (centres undefined)	inactive	
COc1cc2c(cc1OCc1ccccc1)NC(=O)C21CCN(CC2CC2)CC1	inactive	
O=C(c1ccncc1)N1CC2CCC(C1)N2CC1CCCC1	inactive	
COc1ccccc1-c1cc([C@H]2CN3CC[C@H]2C[C@@H]3COC(=O)Nc2ccccc2)n(C)n1	inactive	
COc1ccc(C(=O)NC[C@H]2C[C@@H]3CCN2C[C@@H]3c2cc(-c3ccc(N(C)C)cc3)nc(C)n2)cc1	active: 28.2 µM	
O=C(Nc1ccccc1)N1C[C@@H]2C[C@H](C1)c1c(-c3cccs3)ccc(=O)n1C2	inactive	
COc1ccc2c(c1)C1(CCNC1)C(=O)N2 (centres undefined)	inactive	
O=C(Nc1ccc2c(c1)OCCO2)c1cccn(Cc2ccccc2)c1=O	inconclusive: 44.7 µM [inhibitor, single point]	
COc1cccc(-c2cnc3[nH]cc(CC(=O)N4CCN(C)CC4)c3c2)c1	active: 35.5 µM	
Cc1nc(-c2cccs2)cc([C@H]2CN3CC[C@H]2C[C@@H]3CNC(=O)C2CCC2)n1	inconclusive: 44.7 µM [inhibitor, partial curve, poor fit]	
O=C(C1CC1)N1C[C@H]2CN(Cc3cccnc3)C[C@@]2(C(=O)O)C1	inactive	
C=CCN1CCN(c2cccc(C(F)(F)F)c2)CC1	inactive	
CN1C(=O)NC(=O)C2(Cc3c(ccc4ccccc34)N(C)C2)C1=O (centres undefined)	inactive	
CN1CCc2nc(SCc3cccc(Br)c3)c(C#N)cc2C1	inconclusive: 39.8 µM [inhibitor, partial curve, poor fit]	
O=C1CC(c2ccc(C(F)(F)F)cc2)c2c(c3ccccc3oc2=O)O1 (centres undefined)	inconclusive: 22.4 µM [inhibitor, single point]	
Cc1nc(-c2ccc(N(C)C)cc2)cc([C@H]2CN3CC[C@H]2C[C@@H]3CNC(=O)c2ccccc2)n1	active: 25.1 µM	
CC(=O)N1CCC2(CC1)CC(c1cccnc1)=NO2	active: 17.8 µM	
O=C(Nc1cccc(C(F)(F)F)c1)OC[C@H]1C[C@@H]2CCN1C[C@@H]2c1cc(C2CCCC2)nc(-c2ccncc2)n1	inactive	
O=C(C1CCCCC1)N1[C@H]2CC[C@@H]1c1cnc(-c3ccc(F)cc3)nc1C2	inactive	
Cc1cc(C)c2[nH]c(C)c(CCN)c2c1	inconclusive: 15.8 µM [inhibitor, partial curve, poor fit]	
O=C(c1cnccn1)N1[C@H]2CC[C@@H]1c1cnc(-c3ccc(F)cc3)nc1C2	inactive	

SMILES	Potency	activity change, negative = inhibition
COc1ccc(-c2coc3cc(OCC(=O)N4CCN(C)CC4)ccc3c2=O)cc1	inactive	
COc1ccc(Cc2cn(C)c(N)n2)cc1	inconclusive: 12.6 µM [inhibitor, partial curve, poor fit]	
O=C1NC(=O)N(Cc2ccccc2)C(=O)/C1=C/C=C/c1ccco1	inconclusive: 8.91 µM [inhibitor, partial curve, poor fit]	
COc1ccccc1NC(=O)Nc1ccc2n(c1=O)C[C@H]1C[C@@H]2CN(C(=O)C(=O)O)C1	inconclusive: 39.8 µM [inhibitor, partial curve, poor fit]	
COc1ccc(CN2CCN(C(=O)COc3ccc4ccccc4c3)CC2)cc1	inconclusive: 25.1 µM [inhibitor, partial curve, poor fit]	
COc1cc(-c2c(C#N)c(N)nc3c2c(=O)nc2sccn23)ccc1OCc1ccccc1F	inconclusive: 39.8 µM [inhibitor, single point]	
Nc1c(C(=O)Nc2ccc(F)c(Cl)c2)sc2nc3c(cc12)N1CCC3CC1	inconclusive: 28.2 µM [inhibitor, partial curve, poor fit]	
CC(=O)N1[C@H]2CC[C@@H]1c1cnc(-c3ccccc3)nc1C2	inactive	
COc1ccc(CCC(=O)N2[C@H]3CC[C@@H]2c2cnc(C)nc2C3)cc1	inconclusive: 35.5 µM [inhibitor, partial curve, poor fit]	
c1ccc(CNc2c3c(nc4ccccc24)CCC3)cc1	inconclusive: 25.1 µM [inhibitor, partial curve, poor fit]	
COc1cc2c(cc1OCc1ccccc1)NC(=O)C21CCN(Cc2nccn2C)CC1	inactive	
COc1cc2c(cc1OC1CCCC1)NC(=O)C21CCN(c2ncc(C(C)C)cn2)CC1	active: 35.5 µM	
CN1C[C@H]2CN(Cc3cnn(C)c3)CCN2C1=O	inconclusive: 35.5 µM [inhibitor, partial curve, poor fit]	
Cc1ccc(N2C(=O)NC(=O)/C(=C/c3ccoc3)C2=O)cc1	inconclusive: 28.2 µM [inhibitor, partial curve, poor fit]	
CCCCC(=O)N/N=C/c1c(O)n(CCc2ccccc2)c(=O)[nH]c1=O	inconclusive: 22.4 µM [inhibitor, single point]	
CC(=O)N(C1CC1)C1CCOC2(CCNCC2)C1 (centres undefined)	inconclusive: 8.91 µM [inhibitor, single point]	
COc1ccc(C2=NOC3(CCN(Cc4cccnc4)C3)C2)cc1 (centres undefined)	inactive	
O=C(C1CCCCC1)N1C[C@@H]2C[C@H](C1)c1ccc(C3CCCCC3)c(=O)n1C2	inconclusive: 35.5 µM [inhibitor, single point]	
COCCCNC(=O)c1c(N)n(Cc2ccco2)c2nc3ccccc3nc12	inconclusive: 39.8 µM [inhibitor, partial curve, poor fit]	
CC(=O)NC[C@H]1C[C@@H]2CCN1C[C@@H]2c1cc(-c2ccccc2)nc(C)n1	inconclusive: 39.8 µM [inhibitor, partial curve, poor fit]	
O=C(Nc1ccccc1)OC[C@H]1C[C@@H]2CCN1C[C@@H]2c1cc(C2CCCC2)nc(-c2ccncc2)n1	inactive	
Cn1cc(CN2CCN3C(=O)N(c4ccccn4)C[C@H]3C2)cn1	inconclusive: 56.2 µM [inhibitor, partial curve, poor fit]	
CC(C)CN1CCNc2cc(-c3ccccc3)ncc2C1	inconclusive: 31.6 µM [inhibitor, partial curve, poor fit]	
